Source: PubChem BioAssay AID686978 (National Center for Advancing Translational Sciences (NCATS), 2013)
Screen size: about 420,000 compounds; about 64,000 (15%) were called active. The inconclusive results got no clear call from the source; some entries with a clear call stand among them for comparison. The call rests on the fitted dose curve; in most records, active means well fitted inhibition curve with a large enough effect; inconclusive means small, poorly fitted or top-dose-only effect; inactive means flat fitted curve, though single readings scatter. Potencies of inconclusive entries are left out as doubtful fits.

Assay: qHTS for Inhibitors of human tyrosyl-DNA phosphodiesterase 1 (TDP1): qHTS in cells in absence of CPT; further: nearly all actives have a fitted effect of over 55% in size
Details: DT40 Tdp1-/- hTDP1 cells, no CPT, ATP luminescence, 48 h; activity change, negative = growth inhibition: at 46.2 µM (top of the series) unless noted
How it was run: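 Chicken DT40 Tdp1-/- cells stably complemented with human TDP1 were seeded at 400 cells/well with DMSO in place of 20 nM camptothecin. After compound pinning, cells grew at least 48 hr at 37 °C; viability read by CellTiter-Glo luminescence.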
On the % scale 0 is the no-effect control and ±100 the full control effect; potency means the concentration at half of the fitted maximal effect; tags describe the fitted curve by direction and shape.

| Structure (SMILES) | Potency | activity change, negative = growth inhibition |
| --- | --- | --- |
| Cc1c(C(=O)N(Cc2ccc(N(C)C)cc2)C2CCS(=O)(=O)C2)oc2ccccc12 (stereo not drawn) | inconclusive [inhibitor, single point] | – |
| Cc1ccc(O)c(N=Nc2nccs2)c1 | active: 0.92 µM | – |
| COc1cc(C(=O)CC2(O)C(=O)N(Cc3ccccc3Cl)c3ccccc32)cc(OC)c1OC (stereo not drawn) | active: 5.17 µM | – |
| CCCc1ccc(OCC(O)CN2CCc3ccccc3C2)cc1 (stereo not drawn) | inconclusive [inhibitor, single point] | – |
| O=C(NCCc1ccccn1)c1cc(-c2ccc(Cl)cc2)nc2ccccc12 | active: 18.4 µM | – |
| COC(=O)C(C)N(C(=O)c1cccc(Cl)c1)c1c(C)cccc1C (stereo not drawn) | inconclusive [inhibitor, single point] | – |
| CCOC(=O)C1CCN(C(=O)Cn2c(=O)c3cccn3c3cccnc32)CC1 | inconclusive [inhibitor, single point] | – |
| O=C(CC(Nc1ccc(F)cc1)C(=O)OCC(=O)c1cccs1)c1ccccc1 (stereo not drawn) | inconclusive [inhibitor, single point] | – |
| COc1ccc(-c2cn3cc(C(F)(F)F)cc(Cl)c3n2)cc1 | active: 18.4 µM | – |
| CC(=O)c1ccccc1NC(=O)CSc1nnc(Cc2csc(C)n2)o1 | – | inactive: 6.44% |
| O=C(Nc1c(C(=O)N2CCN(c3ccc(F)cc3)CC2)oc2ccccc12)c1c(F)cccc1F | inconclusive [inhibitor, full curve, poor fit] | – |
| O=C(NCc1ccc2c(c1)OCO2)c1ccc2c(c1)OCCO2 | – | inconclusive: -31.7% [inhibitor] |
| CCN(c1ccccc1)S(=O)(=O)c1ccc(OCC(=O)N2CCCC2)cc1 | – | inactive: -17.5% |
| O=C(CSC1CS(=O)(=O)c2cc([N+](=O)[O-])ccc21)NNC(=O)c1ccccc1 (stereo not drawn) | active: 20.6 µM | – |
| O=C(N/N=C/c1ccc(O)cc1)c1cccc(C(F)(F)F)c1 | inconclusive [inhibitor, single point] | – |
| CC[C@]12c3[nH]c4ccc(Cl)cc4c3CCN1C(=O)[C@@H](CC(=O)NCCCN(C)C)C[C@@H]2C(=O)N1CCN(C(=O)C2CC2)CC1 | – | inactive: -1.07% |
| CCC(C)[C@H](NC(=O)N1CCn2c1nc1ccccc12)C(=O)NCCc1ccc(OC)c(OC)c1 (stereo partly drawn) | active: 16.4 µM | – |
| O=C(NNc1nc(-c2ccc(Cl)cc2)cs1)c1ccco1 | active: 10.3 µM | – |
| C=CCC(=O)NC1CCCc2c1cnn2-c1cc(F)cc(F)c1 (stereo not drawn) | – | inactive: -5.72% |
| CCCC(=O)NC(Nc1cc(C(F)(F)F)ccc1Cl)C(Cl)(Cl)Cl (stereo not drawn) | active: 18.4 µM | – |
| Cc1cc(C)cc(C(=O)NCC(=O)OCC(=O)NCc2ccco2)c1 | – | inactive: 7.43% |
| Cc1c([N+](=O)[O-])c2ccc(O)cc2n1-c1ccccc1 | inconclusive [inhibitor, partial curve] | – |
| CCC(Sc1nc2ccccc2c2nc(CCn3cncc3C)nn12)C(=O)Nc1cccc(OC)c1 (stereo not drawn) | inconclusive [inhibitor, single point] | – |
| COc1ccccc1NC(=O)c1cccc(NC(=O)c2ccco2)c1 | inconclusive [inhibitor, partial curve] | – |

| Structure (SMILES) | Potency | activity change, negative = growth inhibition |
| --- | --- | --- |
| CCN(CC)c1cc(Cl)nc(N)n1 | inconclusive [inhibitor, partial curve] | – |
| O=C(NN1C(=O)/C(=C/c2cccs2)SC1=S)c1ccccc1 | – | inconclusive: -33.5% [inhibitor] |
| Cc1ccc(NC(=O)c2cnn(-c3ccccc3)c2C)c(C)c1 | inconclusive [inhibitor, partial curve] | – |
| Cc1ccc(SCc2cc(-c3ccc(Cl)cc3)on2)cc1 | inconclusive [inhibitor, single point] | – |
| COC(=O)c1ccn(C(=O)c2ccc(Cl)cc2)n1 | – | inactive: -1.56% |
| CCNC(=S)N(CCc1c(C)[nH]c2ccccc12)Cc1cccnc1 | inconclusive [inhibitor, partial curve] | – |
| CCC(=O)N1c2ccc(S(=O)(=O)N3CCN(c4ccc([N+](=O)[O-])cc4)CC3)cc2CC1C (stereo not drawn) | active: 7.31 µM | – |
| Fc1cccc(Cc2noc(CN3CCC(c4ccncc4)CC3)n2)c1 | active: 13 µM | – |
| COc1ccc2c(CN(C)c3ccccc3)cc(=O)oc2c1 | inconclusive [inhibitor, single point] | – |
| O=C(CCNC(=O)c1ccc(Cl)cc1)NCc1ccco1 | – | inactive: -12.6% |
| Cn1nc(C(F)(F)F)c2cc(C(=O)Nc3ccc(F)c(Cl)c3)sc21 | inconclusive [inhibitor, single point] | – |
| CCCCCOP(=O)(c1ccccc1)c1ccccc1 | inconclusive [inhibitor, single point] | – |
| COc1ccc(C2Nc3ccccc3C(=O)N2c2ccccc2F)cc1COc1ccc(NC(C)=O)cc1 (stereo not drawn) | active: 17.8 µM | – |
| O=C(Cn1cc(SCc2ccc(C(F)(F)F)cc2)c2ccccc21)N1CCCCCC1 | inconclusive [inhibitor, single point] | – |
| CCOc1ccc(CCNC(=O)C2CCN(c3nn4c(=O)cc(C)nc4s3)CC2)cc1OCC | – | inactive: -1.1% |
| CN1CCN(C(=O)/C=C/c2c(F)cccc2Cl)CC1 | – | inactive: 12.2% |
| CC(C)Oc1ccc(CN2CCC(n3nccc3NC(=O)CCc3ccccc3)CC2)cc1 | inconclusive [inhibitor, single point] | – |
| O=C(O)[C@H]1[C@H]2C[C@H]3c4[nH]c5ccccc5c4CCN3C[C@@H]2CC[C@@H]1O | active: 13.3 µM | – |
| c1ccc(-c2cc3nc(NCc4ccc5c(c4)OCO5)ccn3n2)cc1 | inconclusive [inhibitor, single point] | – |
| CN1CCCN(Cc2ccccc2Br)CC1 | – | inactive: -7.41% |
| Cc1ccc(Cl)cc1NC(=O)C1CCCN(S(=O)(=O)c2c(C)noc2C)C1 (stereo not drawn) | inconclusive [inhibitor, single point] | – |
| CCC1CCCCN1CCCNC(=O)c1nn(C)c2c1CS(=O)(=O)c1ccccc1-2 (stereo not drawn) | – | inactive: 26.8% |
| COc1cccc(CNc2ccc(F)c(Cl)c2)c1O | inconclusive [inhibitor, partial curve] | – |
| COc1ccc(CCNC(=O)c2ccc(Cn3c(=O)c4ccccc4n(Cc4cc(C)ccc4C)c3=O)cc2)cc1OC | – | inconclusive: -17.4% [inhibitor] |
